# From PubChem BioAssay AID720542 (National Center for Advancing Translational Sciences (NCATS), 2013)
# Hit rate of the full screen: of about 360,000 compounds, about 740 (0.21%) were called active. Inconclusive results, whose numbers are uncertain, are shown with a selection of clear calls. Calls follow the shape of the dose curve; as a rule, active = well fitted inhibition curve with a large enough effect; inconclusive = small, poorly fitted or top-dose-only effect; inactive = no such curve, though single readings can be large or run the other way. Potencies of inconclusive entries are left out as doubtful fits.
# Tested on: Plasmodium falciparum AMA1 (3D7) - RON2 peptide interaction
# Assay: qHTS for Inhibitors of AMA1-RON; Towards Development of Antimalarial Drug Lead: Primary Screen; also: nearly all actives have a fitted effect of over 45% in size;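 as to activity change, negative = inhibition: 0% = vehicle wells and -100% = peptide control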
# Settings: AlphaScreen AMA1-biotinylated RON2 peptide binding; activity change, negative = inhibition: at 58.2 µM (top of the series) unless noted
# Outline: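 AMA1 (3D7) with his tag at 25 nM final met compounds first, then biotinylated RON2 peptide at 25 nM; detection used donor plus acceptor beads, 10 µg/mL apiece, read by AlphaScreen after 30 min at room temperature.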
# Potency is read from the fitted curve at half-maximal effect; tags tell the direction and shape of the fitted curve.
Structure (SMILES),Potency,"activity change, negative = inhibition"
Cc1cc(Cl)n2nc(C)c(-c3ccc(Cl)cc3)c2n1,"inconclusive [inhibitor, partial curve]",
CCN(CC)CCn1c2ccccc2c(=O)c2c(O)ccc(O)c21,"inconclusive [inhibitor, single point]",
Clc1ccc(CNc2ccccc2NCc2ccc(Cl)nc2)cn1,"inconclusive [inhibitor, single point]",
CC(C)(C)c1ccc(S(=O)(=O)N(CCCN2CCOCC2)Cc2cccs2)cc1,"inconclusive [inhibitor, partial curve]",
OC[C@@H]1CN(Cc2ccc3c(c2)OCO3)C[C@H](n2cnc3c(N4CCN(c5ccccc5)CC4)ncnc32)O1,"inconclusive [inhibitor, partial curve]",
CCCCC(CC)CNC(=O)C(Cc1ccccc1)NS(=O)(=O)c1ccc2c(c1)CCC(=O)N2 (stereo unspecified),,inactive: 16.6%
Clc1ccc(OCCOCCN2CCc3ccccc3C2)c(Cl)c1,"inconclusive [inhibitor, partial curve]",
CCN(CC)c1ccc(NC(=O)/C=C/c2cc(Br)ccc2OC)cc1,"inconclusive [inhibitor, partial curve]",
COc1ccccc1N1CCN(C(=O)C(OC(C)=O)c2ccccc2)CC1 (stereo unspecified),"inconclusive [inhibitor, full curve]",
Cc1ccc(Cc2c(-c3ccco3)nc3c4ccccc4ccn23)cc1,"inconclusive [inhibitor, partial curve]",
Cc1nc2c(=O)[nH]c(=S)[nH]c2[nH]c1=O,active: 28.2 µM,
CN(C)c1ccc(C(c2ccc(N(C)C)cc2)c2ccc([N+](=O)[O-])cc2)cc1,active: 8.91 µM,
CCCn1c(N2CCN(CC(=O)c3c(C)n(C)c4ccccc34)CC2)nc2c1c(=O)[nH]c(=O)n2C,,inactive: -3.34%
CCCN(CC(=O)Nc1ccc(F)c(F)c1F)C(=O)CCc1nc2ccccc2c(=O)[nH]1,"inconclusive [inhibitor, single point]",
CCCCNc1c([N+](=O)[O-])cc(C)cc1[N+](=O)[O-],active: 18.9 µM,
S=C(Nc1ccc(Cl)cc1Cl)N1CCCCC1,,inactive: 16.3%
COc1ccccc1-c1nc(C#N)c(N2CCC(Cc3ccccc3)CC2)o1,"inconclusive [inhibitor, partial curve]",
Cc1cccc(OCCCN2CCOCC2)c1C,"inconclusive [inhibitor, partial curve]",
OC(COC(c1ccccc1)c1ccccc1)CN1CCN(c2ccccn2)CC1 (stereo unspecified),"inconclusive [inhibitor, partial curve]",
Clc1ccc(OCc2nc3ccccc3[nH]2)cc1,,inactive: 4.19%
CCCc1cc(=O)oc2cc(C)cc(OCC(=O)O)c12,"inconclusive [inhibitor, partial curve, poor fit]",
COc1ccc(N2CCCC2)c(NC(=O)c2ccc(Br)o2)c1,"inconclusive [inhibitor, single point]",
CC(C)(C)c1ccccc1OCCCCCn1ccnc1,"inconclusive [inhibitor, partial curve]",
O=c1[nH]nc2c3ccccc3occ1-2,,inactive: -11.3%

Structure (SMILES),Potency,"activity change, negative = inhibition"
Cc1cc2c(N)cccc2nn1,"inconclusive [inhibitor, partial curve]",
CN(C)c1ccc(-c2csc(C(O)c3ccc(F)cc3)n2)cc1 (stereo unspecified),"inconclusive [inhibitor, single point]",
N#Cc1c(Nc2ccccc2Cl)s[nH]c1=O,"inconclusive [inhibitor, single point]",
CCc1ccc(N(CC(=O)NCCc2ccccc2)C(=O)CCC(=O)Nc2ccccn2)cc1,"inconclusive [inhibitor, full curve]",
CCOc1ccccc1C(=O)Nc1cc(OC)ccc1OC,,inactive: -13.8%
COc1ccc(C=CC(=O)c2c(OC)cc(OC)c(OC)c2O)cc1,"inconclusive [inhibitor, partial curve]",
COc1cccc(CC(=O)Nc2nc3ccccc3[nH]2)c1,,inactive: 13.2%
CC1Cc2ccccc2N1CC(=O)c1c(N)n(Cc2ccccc2)c(=O)n(C)c1=O (stereo unspecified),"inconclusive [inhibitor, single point]",
O=C(Nc1ccccc1[N+](=O)[O-])OCC=Cc1ccccc1,"inconclusive [inhibitor, partial curve]",
COc1ccc(-c2cn3cccnc3n2)cc1NC(=O)c1cccs1,,inactive: -15.4%
COC(=O)c1ccc(-c2ccc(OC)c([C@H]3[C@H]4C=CC[C@@H](C)[C@@H]4C(=O)N3Cc3ccccc3)c2)cc1,"inconclusive [inhibitor, partial curve]",
COc1ccc(S(=O)(=O)Nc2cc3c4c(c2)CC(=O)N4CCC3)cc1C,,inactive: 0.607%
CCOc1ccc(N=c2cc(-c3ccc(OC)cc3)oc3ccccc23)cc1,active: 14.1 µM,
CS(=O)(=O)c1nc(-c2ccc(F)cc2)cc(C(F)(F)F)n1,,inactive: 18.2%
CN(N=O)c1ccc(C=C2C=Cc3ccccc32)cc1,"inconclusive [inhibitor, full curve]",
CN1CCN(c2ncnc3c2ncn3[C@H]2CN(Cc3ccc(F)cc3)C[C@@H](CO)O2)CC1,,inactive: -4.11%
CCOC(=O)N1CCN(C2=C(NS(=O)(=O)c3ccc(Br)cc3)C(=O)c3ccccc3C2=O)CC1,"inconclusive [inhibitor, single point]",
CN(c1ccc(Cl)cc1)c1cc2c(c3c1ccn3C)C1CCC2O1 (stereo unspecified),"inconclusive [inhibitor, partial curve]",
O=C1CSC(c2c(F)cccc2Cl)N1c1cccc(F)c1 (stereo unspecified),,inconclusive: -13.4% [inhibitor]
O=C(OCc1ccccc1)N1CCC2CC1c1ccc(N3CCN(Cc4ccc5c(c4)OCO5)CC3)cc12 (stereo unspecified),"inconclusive [inhibitor, partial curve]",
CN(C)/N=C/C=C1\CCC/C(=C\c2ccc(F)c(F)c2)C1=O,"inconclusive [inhibitor, full curve, poor fit]",
CN1C/C(=C/c2ccsc2)C(=O)/C(=C/c2ccsc2)C1,"inconclusive [inhibitor, single point]",
COC(=O)Nc1csc2c1NC(=O)CCCC2,"inconclusive [inhibitor, single point]",
CSCCC(c1nnnn1C1CCCCC1)N1CCN(C/C=C/c2ccccc2)CC1 (stereo unspecified),"inconclusive [inhibitor, single point]",

Structure (SMILES),Potency,"activity change, negative = inhibition"
O=C(NC1CCCC1)C(C1CC1)n1c(-c2ccccn2)nc2ccccc21 (stereo unspecified),,inactive: 4.67%
CCN(C=NC1=NN(c2cccc(C(F)(F)F)c2)CC1)CC,"inconclusive [inhibitor, single point]",
O=C(Nc1cccc(Cl)c1N1CCCC1)c1cc2ccccc2o1,,inactive: 0.694%
COc1cc(OC)c2c(c1O)OC(c1ccccc1)CC2=O (stereo unspecified),"inconclusive [inhibitor, partial curve]",
Cc1ccccc1-c1nc(CS(=O)(=O)CC(=O)N2CCOCC2)c(C)o1,,inactive: 4.68%
O=C(COc1ccc(F)cc1)Nc1ccccc1N1CCOCC1,,inactive: 5.58%
O=C(NC1C(=O)NNC1c1ccccc1)c1ccccc1 (stereo unspecified),,inactive: 14%
O=C(c1ccc(COc2ccccc2Br)cc1)N1CCCCCC1,,inactive: 5.02%
CC(=O)c1ccc(Sc2ccccc2)c([N+](=O)[O-])c1,"inconclusive [inhibitor, single point]",
CN(C)c1ccc(/C=C/c2ccc3ccccc3[n+]2C)cc1,"inconclusive [inhibitor, single point]",
O=C(Nc1ccc2nc(-c3ccc4nc[nH]c4c3)[nH]c2c1)c1cccs1,"inconclusive [inhibitor, partial curve]",
Cc1cccc(C(=O)N=c2c(C#N)cc3c(=O)n4cccc(C)c4nc3n2Cc2ccco2)c1,"inconclusive [inhibitor, single point]",
Cc1ccc(-c2csc3nc4cc(C(=O)NC5CCC(O)CC5)ccc4c(=O)n23)cc1 (stereo unspecified),"inconclusive [inhibitor, single point]",
COc1ccc2[nH]c(C)c(CCNc3ccc(C(F)(F)F)cc3[N+](=O)[O-])c2c1,"inconclusive [inhibitor, partial curve]",
Cc1c(C(=O)N2CCCCC2C)sc2ncnc(N3CCc4ccccc4C3)c12 (stereo unspecified),"inconclusive [inhibitor, partial curve]",
COc1ccc(NCC(O)COc2ccc(C(C)(C)C)cc2)cc1 (stereo unspecified),"inconclusive [inhibitor, partial curve]",
Cc1ccc(OCCn2c(Br)nc3c2c(=O)n(C)c(=O)n3C)cc1,,inactive: 0%
Nc1ccccc1C(=O)/C=C/c1ccc2c(c1)OCO2,"inconclusive [inhibitor, single point]",
CCOc1ccccc1/C=N/NC(=O)c1nnn(-c2nonc2N)c1CN1CCCCCC1,,inactive: 36.3%
CCN(CC)CCN1C(=O)/C(=C\c2ccc(Cl)c([N+](=O)[O-])c2)SC1=Nc1ccc(OC)cc1,"inconclusive [inhibitor, partial curve]",
Cc1ccc(NCCCn2ccc(NC(=O)OCc3ccccc3)nc2=O)cc1C,"inconclusive [inhibitor, single point]",
CC1(C)CC(=O)C(C2C3=C(CC(C)(C)CC3=O)Oc3ccccc32)=C(O)C1 (stereo unspecified),,inactive: 0.175%
COc1ccccc1NS(=O)(=O)c1cccc(C(=O)NCC(c2ccc(F)cc2)N2CCOCC2)c1 (stereo unspecified),,inactive: -3.67%
